# According to the supplement of paper PMC8728848:
# The other results are listed elsewhere or left out.
# How the values were obtained:
# Test in all cases: glycan array binding signal (z-score within array); higher = stronger binding
# Conditions in all cases: glycan notation: IUPAC condensed, linker removed
# [1] = target: Neu5Ac(a2-3)Gal(b1-3)GlcNAc(b1-2)Man(a1-3)[GlcNAc(b1-4)][Neu5Ac(a2-3)Gal(b1-3)GlcNAc(b1-2)Man(a1-6)]Man(b1-4)GlcNAc(b1-4)GlcNAc
# How it was run: (§1)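 Glycan array data were curated from 3228 arrays in the Consortium for Functional Glycomics database and kept only where the protein sequence was available. Glycan names were converted to IUPAC-condensed notation, and columns mapping to the same glycan were averaged. The binding signal is a within-array Z-score, averaged across arrays of the same protein sequence at different concentrations or buffers and across linkers. Negative Z-scores can be read as non-binding.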
# [2] = target: Neu5Ac(a2-3)Gal(b1-3)GlcNAc(b1-2)Man(a1-3)[Neu5Ac(a2-3)Gal(b1-3)GlcNAc(b1-2)Man(a1-6)]Man(b1-4)GlcNAc(b1-4)GlcNAc
# How it was run: as §1
# [3] = target: Neu5Ac(a2-3)Gal(b1-3)GlcNAc(b1-3)Gal(b1-3)GlcNAc
# How it was run: as §1
# [4] = target: Neu5Ac(a2-3)Gal(b1-3)GlcNAc(b1-3)Gal(b1-4)GlcNAc
# How it was run: as §1
# [5] = target: Neu5Ac(a2-3)Gal(b1-3)GlcNAc(b1-3)GalNAc
# How it was run: as §1
# [6] = target: Neu5Ac(a2-3)Gal(b1-3)GlcNAc(b1-4)Gal(b1-4)Glc
# How it was run: as §1
# [7] = target: Neu5Ac(a2-3)Gal(b1-3)GlcNAc(b1-6)GalNAc
# How it was run: as §1
# [8] = target: Neu5Ac(a2-3)Gal(b1-3)GlcNAc6S
# How it was run: as §1
# [9] = target: Neu5Ac(a2-3)Gal(b1-3)[Fuc(a1-4)]GlcNAc
# How it was run: as §1
# [10] = target: Neu5Ac(a2-3)Gal(b1-3)[Fuc(a1-4)]GlcNAc(b1-3)Gal(b1-3)[Fuc(a1-4)]GlcNAc
# How it was run: as §1
# [11] = target: Neu5Ac(a2-3)Gal(b1-3)[Fuc(a1-4)]GlcNAc(b1-3)Gal(b1-4)[Fuc(a1-3)]GlcNAc
# How it was run: as §1
# [12] = target: Neu5Ac(a2-3)Gal(b1-3)[GlcNAc(b1-6)]GalNAc
# How it was run: as §1
# [13] = target: Neu5Ac(a2-3)Gal(b1-3)[Neu5Ac(a2-6)]GalNAc
# How it was run: as §1
# [14] = target: Neu5Ac(a2-3)Gal(b1-3)[Neu5Ac(a2-6)]GlcNAc(b1-3)[Fuc(a1-3)[Gal(b1-4)]GlcNAc(b1-6)]Gal(b1-4)Glc
# How it was run: as §1
# [15] = target: Neu5Ac(a2-3)Gal(b1-3)]Neu5Ac(a2-3)Gal(b1-4)]GlcNAc
# How it was run: as §1
# [16] = target: Neu5Ac(a2-3)Gal(b1-4)Glc
# How it was run: as §1
# [17] = target: Neu5Ac(a2-3)Gal(b1-4)GlcNAc
# How it was run: as §1
# [18] = target: Neu5Ac(a2-3)Gal(b1-4)GlcNAc(b1-2)Man
# How it was run: as §1
# [19] = target: Neu5Ac(a2-3)Gal(b1-4)GlcNAc(b1-2)Man(a1-3)[GlcNAc(b1-4)][Neu5Ac(a2-3)Gal(b1-4)GlcNAc(b1-2)Man(a1-6)]Man(b1-4)GlcNAc(b1-4)GlcNAc
# How it was run: as §1
# [20] = target: Neu5Ac(a2-3)Gal(b1-4)GlcNAc(b1-2)Man(a1-3)[Neu5Ac(a2-3)Gal(b1-4)GlcNAc(b1-2)Man(a1-6)]Man(b1-4)GlcNAc(b1-4)GlcNAc
# How it was run: as §1
# [21] = target: Neu5Ac(a2-3)Gal(b1-4)GlcNAc(b1-2)Man(a1-3)[Neu5Ac(a2-3)Gal(b1-4)GlcNAc(b1-2)Man(a1-6)]Man(b1-4)GlcNAc(b1-4)[Fuc(a1-6)]GlcNAc
# How it was run: as §1
# [22] = target: Neu5Ac(a2-3)Gal(b1-4)GlcNAc(b1-2)Man(a1-3)[Neu5Ac(a2-6)Gal(b1-4)GlcNAc(b1-2)Man(a1-6)]Man(b1-4)GlcNAc(b1-4)GlcNAc
# How it was run: as §1
# [23] = target: Neu5Ac(a2-3)Gal(b1-4)GlcNAc(b1-2)[Neu5Ac(a2-3)Gal(b1-4)GlcNAc(b1-4)]Man(a1-3)[GlcNAc(b1-4)][Neu5Ac(a2-3)Gal(b1-4)GlcNAc(b1-2)[Neu5Ac(a2-3)Gal(b1-4)GlcNAc(b1-6)]Man(a1-6)]Man(b1-4)GlcNAc(b1-4)GlcNAc
# How it was run: as §1
# [24] = target: Neu5Ac(a2-3)Gal(b1-4)GlcNAc(b1-2)[Neu5Ac(a2-3)Gal(b1-4)GlcNAc(b1-4)]Man(a1-3)[GlcNAc(b1-4)][Neu5Ac(a2-3)Gal(b1-4)GlcNAc(b1-4)Man(a1-6)]Man(b1-4)GlcNAc(b1-4)GlcNAc
# How it was run: as §1
# [25] = target: Neu5Ac(a2-3)Gal(b1-4)GlcNAc(b1-2)[Neu5Ac(a2-3)Gal(b1-4)GlcNAc(b1-6)]Man(a1-6)[Neu5Ac(a2-3)Gal(b1-4)GlcNAc(b1-2)Man(a1-3)]Man(b1-4)GlcNAc(b1-4)GlcNAc
# How it was run: as §1
# [26] = target: Neu5Ac(a2-3)Gal(b1-4)GlcNAc(b1-2)[Neu5Ac(a2-3)Gal(b1-4)GlcNAc(b1-6)]Man(a1-6)[Neu5Ac(a2-3)Gal(b1-4)GlcNAc(b1-2)Man(a1-3)][GlcNAc(b1-4)]Man(b1-4)GlcNAc(b1-4)GlcNAc
# How it was run: as §1
# [27] = target: Neu5Ac(a2-3)Gal(b1-4)GlcNAc(b1-3)Gal
# How it was run: as §1
# [28] = target: Neu5Ac(a2-3)Gal(b1-4)GlcNAc(b1-3)Gal(b1-3)GlcNAc
# How it was run: as §1
# [29] = target: Neu5Ac(a2-3)Gal(b1-4)GlcNAc(b1-3)Gal(b1-4)GlcNAc
# How it was run: as §1
# [30] = target: Neu5Ac(a2-3)Gal(b1-4)GlcNAc(b1-3)Gal(b1-4)GlcNAc(b1-2)Man(a1-3)[Neu5Ac(a2-3)Gal(b1-4)GlcNAc(b1-3)Gal(b1-4)GlcNAc(b1-2)Man(a1-6)]Man(b1-4)GlcNAc(b1-4)GlcNAc
# How it was run: as §1
# [31] = target: Neu5Ac(a2-3)Gal(b1-4)GlcNAc(b1-3)Gal(b1-4)GlcNAc(b1-3)Gal(b1-4)GlcNAc
# How it was run: as §1
# [32] = target: Neu5Ac(a2-3)Gal(b1-4)GlcNAc(b1-3)Gal(b1-4)GlcNAc(b1-3)Gal(b1-4)GlcNAc(b1-2)Man(a1-3)[Neu5Ac(a2-3)Gal(b1-4)GlcNAc(b1-3)Gal(b1-4)GlcNAc(b1-3)Gal(b1-4)GlcNAc(b1-2)Man(a1-6)]GalNAc
# How it was run: as §1
# [33] = target: Neu5Ac(a2-3)Gal(b1-4)GlcNAc(b1-3)Gal(b1-4)GlcNAc(b1-3)GalNAc
# How it was run: as §1
# [34] = target: Neu5Ac(a2-3)Gal(b1-4)GlcNAc(b1-3)Gal(b1-4)GlcNAc(b1-3)[Neu5Ac(a2-3)Gal(b1-4)GlcNAc(b1-3)Gal(b1-4)GlcNAc(b1-6)]GalNAc
# How it was run: as §1
# [35] = target: Neu5Ac(a2-3)Gal(b1-4)GlcNAc(b1-3)Gal(b1-4)GlcNAc(b1-6)[Gal(b1-3)]GalNAc
# How it was run: as §1
# [36] = target: Neu5Ac(a2-3)Gal(b1-4)GlcNAc(b1-3)Gal(b1-4)[Fuc(a1-3)]GlcNAc
# How it was run: as §1
# [37] = target: Neu5Ac(a2-3)Gal(b1-4)GlcNAc(b1-3)GalNAc
# How it was run: as §1
# [38] = target: Neu5Ac(a2-3)Gal(b1-4)GlcNAc(b1-3)[Neu5Ac(a2-3)Gal(b1-4)GlcNAc(b1-6)]GalNAc
# How it was run: as §1
binder,measurement,setting,value
PX9961V-pdi-562-26-562 (Parabacteroides distasonis) (protein) EIFSEITTDNYYQNSNNIYAALVNNYAKAFSTGWSDARYFLQEVTADQLMIPTRGKHGYNGGEYVRLHEHKWTVEENFVYNGWAAPFQGIALCNNTLSDFENLDFSTFKLTEETKNEYIAELRALRVWNYMFLIDFFRHVPIVTDIEEVKAQSTPLEVFNFMESELLAILPDLPKNRGVSRFDQAGVASILVRLYLNAEKWIGISKYDECEQMAQAILDGKYGEYSIDPDYRGPFRSGINGYRSKENIMEFAIKKNYFEASWLYNMWMHYQDRYSLDNDWQGWNGGNLAPSRDLYGNLYQDKLGMPFEKFPDGDIRKKAFRVISNDGDYEGFFLMGTQYKFDYEKGYGFTDEVITGTEEYNGKPLVYVDQVGRFSEGETGLAKGSHVIYGEENTGYRLIKFPWLPQSKDLFQMNSIPEIRLAEIYYSLAECKYRSGDKIGAARLLDVVRKRYYKAEDWSKFSYESNISKLTDDEFVDELGREFIGERHRRIDLIRWNRFSEGAWWDKTPDATNQDVFPIPYRALNANPLLKQTTAGF,glycan array binding signal (z-score),[1],0.213
same,glycan array binding signal (z-score),[2],-0.48
same,glycan array binding signal (z-score),[3],-0.65
same,glycan array binding signal (z-score),[4],-0.475
same,glycan array binding signal (z-score),[5],-0.531
same,glycan array binding signal (z-score),[6],-0.516
same,glycan array binding signal (z-score),[7],0.271
same,glycan array binding signal (z-score),[8],-0.515
same,glycan array binding signal (z-score),[9],-0.598
same,glycan array binding signal (z-score),[10],-0.607
same,glycan array binding signal (z-score),[11],-0.02
same,glycan array binding signal (z-score),[12],-0.487
same,glycan array binding signal (z-score),[13],-0.548
same,glycan array binding signal (z-score),[14],-0.421
same,glycan array binding signal (z-score),[15],-0.553
same,glycan array binding signal (z-score),[16],-0.547
same,glycan array binding signal (z-score),[17],-0.65
same,glycan array binding signal (z-score),[18],0.032
same,glycan array binding signal (z-score),[19],-0.631
same,glycan array binding signal (z-score),[20],0.234
same,glycan array binding signal (z-score),[21],-0.037
same,glycan array binding signal (z-score),[22],-0.106
same,glycan array binding signal (z-score),[23],0.059
same,glycan array binding signal (z-score),[24],-0.104
same,glycan array binding signal (z-score),[25],0.076
same,glycan array binding signal (z-score),[26],-0.556
same,glycan array binding signal (z-score),[27],-0.014
same,glycan array binding signal (z-score),[28],-0.575
same,glycan array binding signal (z-score),[29],-0.53
same,glycan array binding signal (z-score),[30],0.084
same,glycan array binding signal (z-score),[31],-0.516
same,glycan array binding signal (z-score),[32],1.24
same,glycan array binding signal (z-score),[33],-0.319
same,glycan array binding signal (z-score),[34],0.75
same,glycan array binding signal (z-score),[35],-0.587
same,glycan array binding signal (z-score),[36],-0.356
same,glycan array binding signal (z-score),[37],-0.717
same,glycan array binding signal (z-score),[38],-0.361
